What all share (test): Broth microdilution (CLSI), cation-adjusted Mueller-Hinton broth, two-fold steps from 0.25 to 128 µg/mL, 18 h at 37 °C.
Compound in assay [1]: C[C@@H](O)[C@H]1C(=O)N2C(C(=O)O)=C(S[C@@H]3CN[C@H](C(=O)Nc4cccc(C(=O)O)c4)C3)[C@H](C)[C@H]12 [Ertapenem]
Compound in assay [2]: C[C@@H](O)[C@H]1C(=O)N2C(C(=O)O)=C(S[C@@H]3CN[C@H](C(=O)N(C)C)C3)[C@H](C)[C@H]12 [Meropenem]
Compound in assay [3]: C[C@@H](O)[C@H]1C(=O)N2C(C(=O)O)=C(SCCNC=N)C[C@H]12 [Imipenem]

MIC by broth microdilution (CLSI, 0.25-128 µg/mL, 18 h, 37 °C) of Gram-negative wastewater isolates picked on carbapenem-selective plates; higher = less susceptible. No active / inactive call. Isolates were selected for resistance.

This passage reports MIC results from the supplement of paper PMC10886265.

As to “Kluyvera cryocrescens isolate primary sludge #31 (carbapenemase genes (PCR): KPC)”, the MIC came to 64 µg/mL in assay [1], 128 µg/mL in assay [2] and 128 µg/mL in assay [3].
In the case of “Kluyvera cryocrescens isolate primary sludge #46 (carbapenemase genes (PCR): KPC)”, the minimal inhibitory concentration (MIC) stood at 64 µg/mL in assay [1], 128 µg/mL in assay [2] and 128 µg/mL in assay [3].
For “Kluyvera cryocrescens isolate primary sludge #50 (carbapenemase genes (PCR): KPC)”, the MIC came out at 64 µg/mL in assay [1], 128 µg/mL in assay [2] and 128 µg/mL in assay [3].
For “Kluyvera cryocrescens isolate secondary sludge #46 (carbapenemase genes (PCR): KPC)”, the minimal inhibitory concentration (MIC) in assay [1] amounted to 16 µg/mL; in assay [2], 64 µg/mL; in assay [3] it was 32 µg/mL.
As for “Kluyvera cryocrescens isolate sewage #58 (carbapenemase genes (PCR): KPC)”, the minimum inhibitory concentration (MIC) in assay [1] came to 8 µg/mL; in assay [2], 32 µg/mL; in assay [3] it was 16 µg/mL.
Consider “Kluyvera cryocrescens isolate sewage #84 (carbapenemase genes (PCR): KPC)”, for which the MIC in assay [1] was 32 µg/mL; in assay [2], 64 µg/mL; in assay [3], 128 µg/mL.
As for “Kluyvera georgiana isolate primary sludge #51 (carbapenemase genes (PCR): KPC)”, the minimal inhibitory concentration (MIC) in assay [1] came out at 64 µg/mL; in assay [2] it was 128 µg/mL; in assay [3] it was 128 µg/mL.
In the case of “Kluyvera georgiana isolate secondary sludge #54 (carbapenemase genes (PCR): KPC)”, the minimal inhibitory concentration (MIC) was 64 µg/mL in assay [1], above 128 µg/mL in assay [2] and 128 µg/mL in assay [3].
As to “Kluyvera georgiana isolate sewage #149 (carbapenemase genes (PCR): KPC)”, the minimal inhibitory concentration (MIC) in assay [1] was found to be 4 µg/mL; in assay [2] it was 32 µg/mL; in assay [3], 16 µg/mL.
With “Pseudomonas aeruginosa isolate primary sludge #253 (carbapenemase genes (PCR): VIM)”, the values for the MIC in assay [1], in assay [2] and in assay [3] were 8 µg/mL, 64 µg/mL and 32 µg/mL, respectively.
“Pseudomonas aeruginosa isolate primary sludge #254 (carbapenemase genes (PCR): VIM)”: the results for the minimal inhibitory concentration (MIC) in assay [1], in assay [2] and in assay [3] were 8 µg/mL, 64 µg/mL and 32 µg/mL, respectively.
Turning to “Pseudomonas aeruginosa isolate primary sludge #255 (carbapenemase genes (PCR): VIM)”, the minimal inhibitory concentration (MIC) in assay [1] was determined as 8 µg/mL; in assay [2] it was 64 µg/mL; in assay [3], 32 µg/mL.
Turning to “Pseudomonas aeruginosa isolate primary sludge #256 (carbapenemase genes (PCR): VIM)”, the MIC is 8 µg/mL in assay [1], 64 µg/mL in assay [2] and 32 µg/mL in assay [3].
As for “Pseudomonas aeruginosa isolate primary sludge #258 (carbapenemase genes (PCR): VIM)”, the results for the MIC in assay [1], in assay [2] and in assay [3] were 8 µg/mL, 64 µg/mL and 32 µg/mL, respectively.
For “Pseudomonas aeruginosa isolate secondary sludge #79 (carbapenemase genes (PCR): VIM)”, in that order: 32 µg/mL, 128 µg/mL and 64 µg/mL.
With “Pseudomonas aeruginosa isolate secondary sludge #86 (carbapenemase genes (PCR): VIM)”, the values for the minimum inhibitory concentration (MIC) in assay [1], in assay [2] and in assay [3] were 32 µg/mL, 128 µg/mL and 64 µg/mL, respectively.
In the case of “Pseudomonas aeruginosa isolate secondary sludge #206 (carbapenemase genes (PCR): VIM)”, the figures for the MIC in assay [1], in assay [2] and in assay [3] were 8 µg/mL, 64 µg/mL and 32 µg/mL, respectively.
For “Pseudomonas aeruginosa isolate secondary sludge #207 (carbapenemase genes (PCR): VIM)”, the MIC was found to be 8 µg/mL in assay [1], 64 µg/mL in assay [2] and 32 µg/mL in assay [3].
In the case of “Pseudomonas aeruginosa isolate secondary sludge #208 (carbapenemase genes (PCR): VIM)”, the MIC stood at 8 µg/mL in assay [1], 64 µg/mL in assay [2] and 32 µg/mL in assay [3].
On to “Pseudomonas aeruginosa isolate secondary sludge #209 (carbapenemase genes (PCR): VIM)”, for which the MIC came to 8 µg/mL in assay [1], 64 µg/mL in assay [2] and 32 µg/mL in assay [3].
As to “Pseudomonas aeruginosa isolate secondary sludge #210 (carbapenemase genes (PCR): VIM)”, the minimal inhibitory concentration (MIC) in assay [1] was 8 µg/mL; in assay [2], 64 µg/mL; in assay [3], 32 µg/mL.
In the case of “Pseudomonas aeruginosa isolate secondary sludge #211 (carbapenemase genes (PCR): VIM)”, the MIC in assay [1] turned out to be 8 µg/mL; in assay [2], 64 µg/mL; in assay [3], 32 µg/mL.
“Pseudomonas aeruginosa isolate secondary sludge #212 (carbapenemase genes (PCR): VIM)”: the MIC in assay [1] worked out at 8 µg/mL; in assay [2], 64 µg/mL; in assay [3] it was 32 µg/mL.
“Pseudomonas aeruginosa isolate secondary sludge #213 (carbapenemase genes (PCR): VIM)”: the figures for the MIC in assay [1], in assay [2] and in assay [3] were 8 µg/mL, 64 µg/mL and 32 µg/mL, respectively.
In the case of “Pseudomonas aeruginosa isolate sewage #184 (carbapenemase genes (PCR): VIM)”, the figures for the MIC in assay [1], in assay [2] and in assay [3] were 64 µg/mL, 64 µg/mL and 32 µg/mL, respectively.
Turning to “Pseudomonas aeruginosa isolate sewage #221 (carbapenemase genes (PCR): VIM)”, the MIC came to 8 µg/mL in assay [1], 64 µg/mL in assay [2] and 32 µg/mL in assay [3].
On to “Pseudomonas aeruginosa isolate sewage #222 (carbapenemase genes (PCR): VIM)”, for which the minimal inhibitory concentration (MIC) in assay [1] amounted to 8 µg/mL; in assay [2] it was 64 µg/mL; in assay [3] it was 32 µg/mL.
The corresponding values for “Pseudomonas aeruginosa isolate sewage #223 (carbapenemase genes (PCR): VIM)” are 8 µg/mL, 64 µg/mL and 32 µg/mL.
For “Pseudomonas aeruginosa isolate sewage #228 (carbapenemase genes (PCR): VIM)”, in that order: 8 µg/mL, 64 µg/mL and 32 µg/mL.
With “Pseudomonas koreensis isolate sewage #1 (carbapenemase genes (PCR): ND)”, the minimum inhibitory concentration (MIC) in assay [1] was found to be 4 µg/mL; in assay [2] it was 16 µg/mL; in assay [3], 4 µg/mL.
Regarding “Pseudomonas koreensis isolate sewage #7 (carbapenemase genes (PCR): IMP)”, the minimal inhibitory concentration (MIC) in assay [1] was determined as 4 µg/mL; in assay [2], 16 µg/mL; in assay [3], 8 µg/mL.
